Here are results for 1 molecule from the supplement of paper PMC8728848.

Some of the results follow.

What all share (assay): glycan array binding signal (z-score within array); higher = stronger binding
What all share (settings): glycan notation: IUPAC condensed, linker removed; mutation: R82H, R255H

Test [1] addresses Gal(b1-4)GlcNAc(b1-3)Gal(b1-4)GlcNAc(b1-2)Man(a1-3)[Gal(b1-4)GlcNAc(b1-3)Gal(b1-4)GlcNAc(b1-2)Man(a1-6)]Man(b1-4)GlcNAc(b1-4)[Fuc(a1-6)]GlcNAc. In short, it runs like this:
(§1)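 From the Consortium for Functional Glycomics database, 3228 arrays were curated, keeping only those whose protein sequence was available. Binding is given as a within-array Z-score averaged across arrays sharing a protein sequence and across linkers. Negative Z-scores can be read as non-binding.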

Test [2] deals with Gal(b1-4)GlcNAc(b1-3)Gal(b1-4)GlcNAc(b1-2)[Gal(b1-4)GlcNAc(b1-3)Gal(b1-4)GlcNAc(b1-6)]Man(a1-6)[Gal(b1-4)GlcNAc(b1-3)Gal(b1-4)GlcNAc(b1-2)Man(a1-3)]Man(b1-4)GlcNAc(b1-4)GlcNAc. The essentials: as §1
The target of test [3] is Gal(b1-4)GlcNAc(b1-3)Gal(b1-4)GlcNAc(b1-2)[Gal(b1-4)GlcNAc(b1-3)Gal(b1-4)GlcNAc(b1-6)]Man(a1-6)[Gal(b1-4)GlcNAc(b1-3)Gal(b1-4)GlcNAc(b1-2)Man(a1-3)]Man(b1-4)GlcNAc(b1-4)[Fuc(a1-6)]GlcNAc. The essentials:
as §1

The target in test [4] is Gal(b1-4)GlcNAc(b1-3)Gal(b1-4)GlcNAc(b1-3)Gal(b1-4)GlcNAc. The essentials:
as §1

The target of test [5] is Gal(b1-4)GlcNAc(b1-3)Gal(b1-4)GlcNAc(b1-3)Gal(b1-4)GlcNAc(b1-2)Man(a1-3)[Gal(b1-4)GlcNAc(b1-3)Gal(b1-4)GlcNAc(b1-3)Gal(b1-4)GlcNAc(b1-2)Man(a1-6)]Man(b1-4)GlcNAc(b1-4)GlcNAc. The essentials:
as §1

The target of test [6] is Gal(b1-4)GlcNAc(b1-3)Gal(b1-4)GlcNAc(b1-3)Gal(b1-4)GlcNAc(b1-2)Man(a1-3)[Gal(b1-4)GlcNAc(b1-3)Gal(b1-4)GlcNAc(b1-3)Gal(b1-4)GlcNAc(b1-2)Man(a1-6)]Man(b1-4)GlcNAc(b1-4)[Fuc(a1-6)]GlcNAc. In short, it runs like this:
as §1

In test [7] the target is Gal(b1-4)GlcNAc(b1-3)Gal(b1-4)GlcNAc(b1-3)Gal(b1-4)GlcNAc(b1-2)[Gal(b1-4)GlcNAc(b1-3)Gal(b1-4)GlcNAc(b1-3)Gal(b1-4)GlcNAc(b1-6)]Man(a1-6)[Gal(b1-4)GlcNAc(b1-3)Gal(b1-4)GlcNAc(b1-3)Gal(b1-4)GlcNAc(b1-2)Man(a1-3)]Man(b1-4)GlcNAc(b1-4)[Fuc(a1-6)]GlcNAc. In short, it runs like this: as §1
For test [8], the target named is Gal(b1-4)GlcNAc(b1-3)Gal(b1-4)GlcNAc(b1-3)Gal(b1-4)GlcNAc(b1-3)Gal(b1-4)GlcNAc(b1-2)Man(a1-3)[Gal(b1-4)GlcNAc(b1-3)Gal(b1-4)GlcNAc(b1-3)Gal(b1-4)GlcNAc(b1-3)Gal(b1-4)GlcNAc(b1-2)Man(a1-6)]Man(b1-4)GlcNAc(b1-4)GlcNAc. In short, it runs like this:
as §1

The target of test [9] is Gal(b1-4)GlcNAc(b1-3)Gal(b1-4)GlcNAc(b1-3)Gal(b1-4)GlcNAc(b1-3)Gal(b1-4)GlcNAc(b1-2)Man(a1-3)[Gal(b1-4)GlcNAc(b1-3)Gal(b1-4)GlcNAc(b1-3)Gal(b1-4)GlcNAc(b1-3)Gal(b1-4)GlcNAc(b1-2)Man(a1-6)]Man(b1-4)GlcNAc(b1-4)[Fuc(a1-6)]GlcNAc. In short, it runs like this: as §1
Test [10] has as its target Gal(b1-4)GlcNAc(b1-3)Gal(b1-4)GlcNAc(b1-3)Gal(b1-4)GlcNAc(b1-3)Gal(b1-4)GlcNAc(b1-2)[Gal(b1-4)GlcNAc(b1-3)Gal(b1-4)GlcNAc(b1-3)Gal(b1-4)GlcNAc(b1-3)Gal(b1-4)GlcNAc(b1-6)]Man(a1-6)[Gal(b1-4)GlcNAc(b1-3)Gal(b1-4)GlcNAc(b1-3)Gal(b1-4)GlcNAc(b1-3)Gal(b1-4)GlcNAc(b1-2)Man(a1-3)]Man(b1-4)GlcNAc(b1-4)[Fuc(a1-6)]GlcNAc. The essentials:
as §1

For test [11], the target named is Gal(b1-4)GlcNAc(b1-3)Gal(b1-4)GlcNAc(b1-3)Gal(b1-4)GlcNAc(b1-3)Gal(b1-4)GlcNAc(b1-3)Gal(b1-4)GlcNAc(b1-2)Man(a1-3)[Gal(b1-4)GlcNAc(b1-3)Gal(b1-4)GlcNAc(b1-3)Gal(b1-4)GlcNAc(b1-3)Gal(b1-4)GlcNAc(b1-3)Gal(b1-4)GlcNAc(b1-2)Man(a1-6)]Man(b1-4)GlcNAc(b1-4)GlcNAc. In short, it runs like this:
as §1

In test [12] the target is Gal(b1-4)GlcNAc(b1-3)Gal(b1-4)GlcNAc(b1-3)Gal(b1-4)GlcNAc(b1-3)Gal(b1-4)GlcNAc(b1-3)Gal(b1-4)GlcNAc(b1-2)Man(a1-3)[Gal(b1-4)GlcNAc(b1-3)Gal(b1-4)GlcNAc(b1-3)Gal(b1-4)GlcNAc(b1-3)Gal(b1-4)GlcNAc(b1-3)Gal(b1-4)GlcNAc(b1-2)Man(a1-6)]Man(b1-4)GlcNAc(b1-4)[Fuc(a1-6)]GlcNAc. In short, it runs like this:
as §1

Test [13] deals with Gal(b1-4)GlcNAc(b1-3)Gal(b1-4)GlcNAc(b1-3)Gal(b1-4)GlcNAc(b1-3)Gal(b1-4)GlcNAc(b1-3)Gal(b1-4)GlcNAc(b1-2)[Gal(b1-4)GlcNAc(b1-3)Gal(b1-4)GlcNAc(b1-3)Gal(b1-4)GlcNAc(b1-3)Gal(b1-4)GlcNAc(b1-3)Gal(b1-4)GlcNAc(b1-6)]Man(a1-6)[Gal(b1-4)GlcNAc(b1-3)Gal(b1-4)GlcNAc(b1-3)Gal(b1-4)GlcNAc(b1-3)Gal(b1-4)GlcNAc(b1-3)Gal(b1-4)GlcNAc(b1-2)Man(a1-3)]Man(b1-4)GlcNAc(b1-4)[Fuc(a1-6)]GlcNAc. The essentials:
as §1

Test [14] concerns the target Gal(b1-4)GlcNAc(b1-3)Gal(b1-4)GlcNAc(b1-3)Gal(b1-4)GlcNAc(b1-3)Gal(b1-4)GlcNAc(b1-3)Gal(b1-4)GlcNAc(b1-3)Gal(b1-4)GlcNAc(b1-2)Man(a1-3)[Gal(b1-4)GlcNAc(b1-3)Gal(b1-4)GlcNAc(b1-3)Gal(b1-4)GlcNAc(b1-3)Gal(b1-4)GlcNAc(b1-3)Gal(b1-4)GlcNAc(b1-3)Gal(b1-4)GlcNAc(b1-2)Man(a1-6)]Man(b1-4)GlcNAc(b1-4)GlcNAc. The essentials: as §1
Test [15] addresses Gal(b1-4)GlcNAc(b1-3)Gal(b1-4)GlcNAc(b1-3)GalNAc. The essentials:
as §1

Test [16] deals with Gal(b1-4)GlcNAc(b1-3)Gal(b1-4)GlcNAc(b1-3)[Gal(b1-4)GlcNAc(b1-3)Gal(b1-4)GlcNAc(b1-6)]GalNAc. In short, it runs like this:
as §1

The target of test [17] is Gal(b1-4)GlcNAc(b1-3)Gal(b1-4)GlcNAc(b1-6)[Gal(b1-3)]GalNAc. In short, it runs like this: as §1
Test [18] has as its target Gal(b1-4)GlcNAc(b1-3)Gal(b1-4)[Fuc(a1-3)]GlcNAc(b1-3)Gal(b1-4)[Fuc(a1-3)]GlcNAc. The essentials: as §1
For test [19], the target named is Gal(b1-4)GlcNAc(b1-3)GalNAc. The essentials: as §1
Test [20] has as its target Gal(b1-4)GlcNAc(b1-3)[Fuc(a1-3)GlcNAc(b1-6)]Gal(b1-4)Glc. In short, it runs like this:
as §1

For test [21], the target named is Gal(b1-4)GlcNAc(b1-3)[Gal(b1-4)GlcNAc(b1-6)]Gal(b1-4)GlcNAc. In short, it runs like this:
as §1

In test [22] the target is Gal(b1-4)GlcNAc(b1-3)[GlcNAc(b1-6)]Gal(b1-4)GlcNAc. The essentials:
as §1

B1: Gal 8 (Mus musculus), Q9JL15 (protein)
chain: MGGSHHHHHHGMASMLSLNNLQNIIYNPIIPYVGTITEQLKPGSLIVIRGHVPKDSERFQVDFQLGNSLKPRADVAFHFNPHFKRSSCIVCNTLTQEKWGWEEITYDMPFRKEKSFEIVFMVLKNKFQVAVNGRHVLLYAHRISPEQIDTVGIYGKVNIHSIGFRFSSASALPHTLGDLQSMETSALGLTQINRENIQKPGKLQLSLPFEARLNASMGPGRTVVIKGEVNTNARSFNVDLVAGKTRDIALHLNPHLNVKAFVRNSFLQDAWGEEERNITCFPFSSGMYFEMIIYCDVREFKVAINGVHSLEYKHRFKDLSSIDTLSVDGDIRLLDVRSW
As to B1, the “glycan array binding signal (z-score)” value was 1.24 in [1]; 0.82 in [2]; 0.073 in test [3]; -0.271 in [4]; 1.01 in test [5]; 0.135 in test [6]. The “glycan array binding signal (z-score)” value in test [7] amounted to 1.5; in test [8] it was 1.75; in test [9] it was 1.24; in test [10] it was 3.38; in test [11], 4.12; in test [12] it was 4.16. Besides, the “glycan array binding signal (z-score)” value in test [13] was 6; in test [14], 7.05; in [15], -0.078; in test [16], 0.053; in test [17], 0.025; in [18], -0.243. Also, the “glycan array binding signal (z-score)” value is -0.257 in [19], -0.269 in test [20], -0.272 in test [21] and -0.268 in test [22].
